From PubChem BioAssay AID504332 (National Center for Advancing Translational Sciences (NCATS), 2011)
Screen size: about 350,000 compounds; about 31,000 (8.9%) were called active. Inconclusive results, whose numbers are uncertain, are shown with a selection of clear calls. The call rests on the fitted dose curve; in most records, active means well fitted inhibition curve with a large enough effect; inconclusive means small, poorly fitted or top-dose-only effect; inactive means no such curve, though single readings can be large or run the other way. Potencies beside an inconclusive call are fits to weak or partial responses and may not hold up.

Target: Histone-lysine N-methyltransferase EHMT2 (Homo sapiens) (UniProt Q96KQ7)
Assay: qHTS Assay for Inhibitors of Histone Lysine Methyltransferase G9a; further: nearly all actives have a fitted effect of over 75% in size
Settings: G9a H3K9 monomethylation, AlphaScreen, 2 h; activity, negative = inhibition: at 59 µM (top of the series) unless noted
Summary of the method: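 Step 1: enzyme (final 20 nM) with compound, 15 min RT. Step 2: substrate peptide 500 nM and SAM 20 uM, 2 h RT. Step 3: anti-H3K9me1 antibody and AlphaScreen beads, 10 min, then plate read.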
On the % scale 0 is the no-effect control and ±100 the full control effect; potency means the concentration at half of the fitted maximal effect; tags describe the fitted curve by direction and shape.

Chain of UniProt Q96KQ7 (Q96KQ7 whole entry, looked up): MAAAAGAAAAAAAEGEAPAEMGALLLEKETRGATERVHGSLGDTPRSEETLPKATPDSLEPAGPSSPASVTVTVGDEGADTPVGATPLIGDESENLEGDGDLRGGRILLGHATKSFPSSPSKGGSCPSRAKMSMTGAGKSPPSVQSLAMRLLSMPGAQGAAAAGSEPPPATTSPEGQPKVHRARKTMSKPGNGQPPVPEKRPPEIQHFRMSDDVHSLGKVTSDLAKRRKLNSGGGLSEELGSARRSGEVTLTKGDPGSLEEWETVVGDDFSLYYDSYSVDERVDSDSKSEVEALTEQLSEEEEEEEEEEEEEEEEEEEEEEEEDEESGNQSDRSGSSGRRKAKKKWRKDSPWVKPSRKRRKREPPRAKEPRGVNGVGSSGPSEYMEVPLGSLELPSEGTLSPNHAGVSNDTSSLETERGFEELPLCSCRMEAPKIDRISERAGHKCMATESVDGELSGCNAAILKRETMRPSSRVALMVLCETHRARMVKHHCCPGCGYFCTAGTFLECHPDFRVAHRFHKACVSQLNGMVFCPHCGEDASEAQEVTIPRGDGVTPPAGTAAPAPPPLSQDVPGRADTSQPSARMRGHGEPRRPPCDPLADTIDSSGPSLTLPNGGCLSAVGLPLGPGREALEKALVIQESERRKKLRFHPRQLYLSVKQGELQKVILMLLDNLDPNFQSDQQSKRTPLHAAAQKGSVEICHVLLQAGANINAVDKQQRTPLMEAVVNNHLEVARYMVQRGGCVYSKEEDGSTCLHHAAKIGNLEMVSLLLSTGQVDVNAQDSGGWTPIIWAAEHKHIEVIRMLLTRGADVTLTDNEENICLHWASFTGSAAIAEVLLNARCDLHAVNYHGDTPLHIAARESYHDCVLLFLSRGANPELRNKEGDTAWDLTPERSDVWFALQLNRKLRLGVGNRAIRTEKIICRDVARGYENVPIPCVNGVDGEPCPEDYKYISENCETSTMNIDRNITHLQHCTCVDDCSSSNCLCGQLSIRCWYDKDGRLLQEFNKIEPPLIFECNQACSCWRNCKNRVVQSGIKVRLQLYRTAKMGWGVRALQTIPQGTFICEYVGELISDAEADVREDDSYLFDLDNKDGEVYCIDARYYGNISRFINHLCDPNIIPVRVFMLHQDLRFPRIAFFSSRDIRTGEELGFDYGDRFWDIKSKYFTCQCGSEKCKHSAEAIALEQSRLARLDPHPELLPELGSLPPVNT

Row | Compound | Potency | activity, negative = inhibition
1 | COc1cccc(CN2CCNC(=O)C2CC(=O)NCCCC2CCCC2)c1OC (stereo not drawn) | inconclusive: 50.1 µM [inhibitor, single point] | –
2 | Fc1ccc(C(c2nnnn2Cc2cccs2)N2CCN(C3CCCC3)CC2)cc1 (stereo not drawn) | inactive | –
3 | O=C(CN1C(=O)c2ccccc2S1(=O)=O)Nc1ccc(S(=O)(=O)N2CCCCCC2)cc1 | – | inconclusive: -58.1% [inhibitor]
4 | CCOC(=O)c1c(S(=O)(=O)Nc2ccc(F)cc2Cl)c(C)n(C)c1C | inconclusive: 89.1 µM [inhibitor, single point] | –
5 | COc1cccc(CN2CCSCC2)c1 | active: 39.8 µM | –
6 | COc1ccc(C2c3cccn3CCN2S(=O)(=O)c2ccccc2[N+](=O)[O-])cc1OC (stereo not drawn) | inconclusive: 22.4 µM [inhibitor, single point] | –
7 | COc1ccc(C(O)(C2CCCCC2)C(CN2CCCC2)c2ccccc2)cc1 (stereo not drawn) | inconclusive: 79.4 µM [inhibitor, single point] | –
8 | COc1ccc(-c2csc(CCN3N=C(C)CC3=O)n2)cc1 | active: 31.6 µM | –
9 | CN(Cc1ccccc1)C(=O)COC(=O)C1CCN(S(=O)(=O)c2cccs2)CC1 | inactive | –
10 | COC(=O)c1c(-c2ccc(C)cc2)csc1NC(=O)C1CC=CCC1C(=O)O (stereo not drawn) | inconclusive: 14.1 µM [inhibitor, partial curve, poor fit] | –
11 | CCN(CC)CCn1c2c(c(SCC(=O)Nc3ccc4c(c3)OCCO4)nc1=O)CCC2 | inconclusive: 39.8 µM [inhibitor, partial curve, poor fit] | –
12 | Cc1nc2ccc(Cl)cc2c(-c2ccccc2F)c1CC(=O)O | inconclusive: 11.2 µM [inhibitor, partial curve, poor fit] | –
13 | Cc1ccc[n+](-c2[nH]c(=O)sc2/C=N/NC(=O)c2ccccc2[O-])c1 | inconclusive: 89.1 µM [inhibitor, single point] | –
14 | CCN(CC)c1ccc(C2C3CCCCC3(O)CCN2C(=O)c2cccs2)cc1 (stereo not drawn) | active: 50.1 µM | –
15 | NC1=C([N+](=O)[O-])C(c2ccc(F)cc2)C2=C(CCCC2=O)O1 (stereo not drawn) | inconclusive: 39.8 µM [inhibitor, single point] | –
16 | Cc1ccc(S(=O)(=O)NC2c3cccc4cccc(c34)C2Sc2ncccn2)cc1 (stereo not drawn) | inactive | –
17 | N#Cc1c(N)c(C(=O)c2ccccc2)n2c1CCCC2 | inconclusive: 79.4 µM [inhibitor, partial curve, poor fit] | –
18 | COc1ccc(-c2nn(-c3ccccc3C)cc2CNCCc2cnc[nH]2)cc1F | inconclusive: 35.5 µM [inhibitor, partial curve, poor fit] | –
19 | COc1ccc(NC(=O)CN(C)C(=O)/C=C/c2cn(-c3ccccc3)nc2-c2cccs2)cc1 | – | inactive: 21.5% [at 2.33 µM]
20 | CCOC(=O)c1c(C)[nH]c(C)c1S(=O)(=O)N(C)Cc1ccco1 | inconclusive: 79.4 µM [inhibitor, single point] | –
21 | CN1CC2(Cc3c1ccc1ccccc31)C(=O)OC(C)(C)OC2=O | inconclusive: 35.5 µM [inhibitor, single point] | –
22 | CCCCC#Cc1ccccc1CC(=O)Nc1ccccc1 | active: 7.94 µM | –

Row | Compound | Potency | activity, negative = inhibition
23 | Cc1ccc(O)c(C2=Nc3ccccc3N=C(c3ccc([N+](=O)[O-])cc3)C2)c1 | inconclusive: 15.8 µM [inhibitor, partial curve, poor fit] | –
24 | O=C(c1ccc(Oc2ccc(C(F)(F)F)cc2[N+](=O)[O-])cc1)N1CCOCC1 | inconclusive: 10 µM [inhibitor, partial curve, poor fit] | –
25 | O=C(O)C1CCCCC1C(=O)Nc1ccc(S(=O)(=O)N2CCCC2)cc1 (stereo not drawn) | inactive | –
26 | COc1ccc(CNCc2cccc(Oc3ccccc3)c2)cc1 | active: 8.91 µM | –
27 | CC(=O)c1c(C)[nH]c(C(=O)CN2C(=O)NC(CCc3ccccc3)C2=O)c1C (stereo not drawn) | inconclusive: 39.8 µM [inhibitor, partial curve, poor fit] | –
28 | COC1=C(N)C(=O)c2nc(-c3nc(C(=O)O)c(C)c(-c4ccc(OC)c(OC)c4O)c3N)ccc2C1=O | inconclusive: 1.26 µM [inhibitor, partial curve, poor fit] | –
29 | O=C(Nc1ccc(F)cc1)c1csc(Cc2ccccc2)n1 | inactive | –
30 | C(=N\NCc1ccccc1)/c1ccc2ncccc2c1 | inactive | –
31 | COc1cc(OC)c(C2CC(=O)N3CN(C)CSC3=C2C#N)cc1OC (stereo not drawn) | active: 1.26 µM | –
32 | CC(C)(C)SCCNC(=O)CN(c1ccc(F)cc1)S(=O)(=O)c1ccccc1 | inactive | –
33 | Cn1cc(C(=O)NCc2ccc(F)cc2)cn1 | inconclusive: 50.1 µM [inhibitor, partial curve, poor fit] | –
34 | Cc1ccc(-c2ccc(CCC(=O)O)n2-c2cccc(C)c2C)cc1 | active: 14.1 µM | –
35 | CCCCC(=O)Nc1ccc(C(=O)N2CCN(C)CC2)cc1 | inconclusive: 44.7 µM [inhibitor, partial curve, poor fit] | –
36 | CCN(CC)c1ccc(C2C(C(=O)OCCOC(C)C)=C(C)NC3=C2C(=O)CCC3)cc1 (stereo not drawn) | active: 10 µM | –
37 | COc1ccc(NC2CCCN(C(=O)CN3CCOC3=O)C2)cc1 (stereo not drawn) | inconclusive: 39.8 µM [inhibitor, partial curve, poor fit] | –
38 | Cc1nc(SCC(=O)Nc2nc3ccccc3s2)c(C#N)c(C)c1C | active: 10 µM | –
39 | COc1ccc(-n2c(=O)c3c4c(sc3n(Cc3ccc(C(C)(C)C)cc3)c2=O)CCC4)c(OC)c1 | inconclusive: 10 µM [inhibitor, partial curve] | –
40 | Cc1ccc(Cl)cc1N1CCN(C(=O)c2ccc3c(c2)N(Cc2ccccc2)CCS3)CC1 | inconclusive: 7.94 µM [inhibitor, partial curve, poor fit] | –
41 | CC(=O)Nc1cc(NC(C)=O)cc(C(=O)OC(C)C(=O)Nc2ccc(S(=O)(=O)N3CCCC3)cc2)c1 (stereo not drawn) | inconclusive: 79.4 µM [inhibitor, single point] | –
42 | COc1cc2[nH]c(=O)n3nc(-c4ccccc4)nc3c2cc1OC | inconclusive: 31.6 µM [inhibitor, single point] | –
43 | Cc1cc(CN2CCN(CC(=O)Nc3cc(C(F)(F)F)ccc3-n3cncn3)CC2)no1 | – | inactive: -9.78% [at 12.7 µM]
